Laboratory results: PubChem BioAssay AID1508624 (National Center for Advancing Translational Sciences (NCATS), 2021)
The whole screen tested about 48,000 compounds, of which about 120 (0.25%) were called active. Roughly 4% stayed inconclusive and do not appear here. Calls come from the whole dose curve; as a rule, active = well fitted activation curve with a large enough effect; inconclusive = small, poorly fitted or top-dose-only effect, or another doubt; inactive = no such curve, though single readings can be large or run the other way. The list shows a part of the results.

assay: Primary qHTS for Identification of Small Molecule Activators of Huntingtin-Antisense Promoter Activity; settings: HEK293 HTT-AS promoter firefly luciferase reporter (activity 0% = vehicle and -100% = no light), 24 h; series mostly up to 57.5 µM; activity change, positive = activation: at the top concentration; note: nearly all actives have a fitted effect of over 55% in size
Outline: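 HEK293 cells carrying firefly luciferase reporters were seeded at 2,500 per well in Opti-MEM and cultured for 24 h. They were then treated with compounds at up to 57.5 uM final for 24 h at 37 degrees C before Dual-Glo luminescence readout.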

Activity change, positive = activation, inactive:
CCOC(=O)c1[nH]c(C)c(CCC(=O)NCc2ccc(OC(C)C)cc2)c1C -31.1%
Cc1ccc(CNS(=O)(=O)c2c(C(=O)N3CCC(C)CC3)c(C)n(C)c2C)cc1 -10.4%
COc1ccc(C)cc1NC(=O)C1CCN(S(=O)(=O)c2cccc3nonc23)CC1 -19.5%
Cc1cc(Nc2cccc(O)c2)c2cccc(Br)c2n1 -4.51%
Cc1sc2ncn(CC(=O)Nc3ccc(C(F)(F)F)cc3)c(=O)c2c1S(=O)(=O)N1CCN(C)CC1 -19.6%
Cc1cccc(NC(=O)CSc2nnc3c4ccccc4n(C)c3n2)c1 -14%
CCc1ccc(S(=O)(=O)c2cn(CC(=O)Nc3cccc(C)c3)c3ccc(Cl)cc3c2=O)cc1 -5.61%
Cc1cc(C)cc(N2C(=O)CS(=O)(=O)C23C(=O)N(Cc2ccccc2)c2ccccc23)c1 (stereo unspecified) -28.9%
CC(C)(O)c1ccccc1CC[C@@H](SCC1(CC(=O)O)CC1)c1cccc(/C=C/c2ccc3ccc(Cl)cc3n2)c1 14%
Cc1cc(OCC(=O)Nc2ncn[nH]2)c(C)c(C)c1Br -1.13%
COc1nnc(-c2ccc(N3CCCCC3)c(NC(=O)c3ccc(Cl)cc3)c2)c2ccccc12 -26.4%
COc1ccc(-c2cc(C(F)(F)F)nc(SCC(=O)Nc3ccc(C(C)=O)cc3)n2)cc1 -41.6%
CCOC(=O)C1CCN(c2ncnc3c2c(-c2ccccc2)cn3-c2ccc(C)c(Cl)c2)CC1 -5.24%
CCc1cc(=O)[nH]c(SCc2nc(-c3ccccc3C)no2)n1 -18.3%
COc1ccc(OC)c(NC(=O)c2nc(SCc3ccc(F)cc3)ncc2Cl)c1 -10.3%
O=C1NC(=O)C(c2ccccc2)(c2ccccc2)N1 -14.7%
O=C(NCCc1csc(-c2ccc(F)cc2)n1)C(=O)Nc1ccc(Cl)cc1 4%
CCC(=O)N1c2ccc(S(=O)(=O)NCCc3ccccc3)cc2CC1C (stereo unspecified) -25.8%
O=C(/C=C/c1cn(CC(O)CN2CCc3ccccc32)c2ccccc12)c1ccc(Br)cc1 (stereo unspecified) -19.8%
Cc1cccc(-n2c(-c3ccco3)nc3c(cnn3-c3ccc(F)cc3)c2=O)c1 -39.1%
Cc1ccc(-n2cnc3cc(C(=O)NC4CCCCCC4)ccc32)cc1Cl -35.2%
COC(=O)c1c(C)sc(-c2c(-c3ccc4c(c3)OCCO4)[nH]c3c2c(=O)[nH]c(=O)n3C)c1O -27.4%
O=C(O)CO.[NH2-].[NH2-].[Pt+2] -6.56%
COc1ccc(-c2nn(C)c3sc(C(=O)N4CCN(c5cccc(Cl)c5)CC4)cc23)cc1OC -13.5%
COc1ccc(NC(=O)C2CCN(S(=O)(=O)c3c(C)noc3/C=C/c3ccc(C)cc3)CC2)cc1Cl -6.9%
Cc1c(CNCCCc2ccccc2)c(C(=O)O)c(C)n1Cc1cccc(Cl)c1 -18.1%
